Assay results taken from the RNAGym collection of RNA variant scans (doi:10.7554/elife.90254).
The source gives no read counts; variants with many changes may rest on few reads.

B1: LINE1-full (parent)
chain: UACGUAGGUGGUUUUCCCCUGAUAGUGCUAAGGGGGCCUGGAAGUUUGGACUGGGCAGAGCUCAACACAGCGUGGCAAAGUGGCUGUGGCUAGACUGCCUCUCUGGAUUCCUCGUCACUCAGCAGGGCAUCUCUGAGAGAAAUGCC

Variants of: B1
Experiment: self-cleavage, relative activity (ratio to wild type); higher = more cleavage; in vitro, sequencing; the parent is a self-cleaving ribozyme

Variant	self-cleavage
A22G A24U G86A U87G	0
G21A A67G A117C G139U	0.18
U20C C37G U45C	1.39
U20G A79G A92G	0
U20A A50G A64U A129G A138U	0.74
G21A G60C C146A	0.05
C19U U26A U39C	0.9
A22G A31G G34A U109C A121G A129G	0
G21A U85C A136U	0.18
U20C U39A U104A	1.29
U20C G60A A79G	0
G21A U46C U134C	1.15
U20G A77U G93A U104C	0.07
G21A A77C A78G	1.7
U20A A77U U112C U119C	0.71
U20A A65G A67G U104A	0.72
A22C A140G A141G	1.96
U20A A117U A121G A138G	1.27
U20G U26A U39C A65G	0.35
U20C G54A G125U	0.39
G21A U87C G89A U102C A121U	0.05
U20C A31G A124U	2.19
U20C A31G A124G	0.84
U20C A22G A142G	0.6

Variant	self-cleavage
G21U U130C A138G	2.16
U20A U85C G89A U112C U143C	0.1
U20C U52A G74A A117G A141G	1.28
U20C U109C A140G	0.52
A22G A43U G82A G88A U108C	0.04
A22G A30G U47A	0.89
U20C U104A G144A	2.16
U20C G35A U46C A121U	1.07
U20A A22G U102A A140C A142G U143A	0.34
U20A A50G A78G	0.22
U20C A22U A43G G74U U100C	0
U20C A77G U81A	2.45
U20A U119C C123U	1.12
U20C U26C U104C U143A	2.19
U20G A78G A142G	0.64
U20C U73C A77U	1.84
A22G A42C A77U	1.09
G21A A42G U96A U130C U132C	0.07
U20A A43G A140G A141G	1.42
A22G A42G A50G U85C	0
U20C U23A A69G	1.23
A22G A42G U73A U85G U109A C111U	0.17
C19U U115A A129U	1.12
U20C U23C A79G U104A	1.23

Variant	self-cleavage
U20C G53A A57G A77G	1.59
U20A U73C U132C U143A	2.67
U20C U39A A50G C120U	0.9
U20A A22G U52C A129U	1.17
U20A C28U A77G	1.43
C19U C71U U91C U115C A117G	0.19
U20C U81A U119A	2.27
A22G A42U U52C A57G	0.54
U20A U119A A121U C145A	1.64
C19U U26A U39C U104C	1.03
U20A C51U A79G U102C U132C	0.77
U20C U39G U62A U85C A136G	0.22
U20A A64U A79G	0.18
A22C A31U A59G U73A	0.38
U20A U62A U112C A138U	0.02
U20G U108C U109A U119A G125U	2.25
U20G U73C U119A	0.5
U20C U39A U87A	0.16
U20A G48U A141G	1.65
U20C U62C U73A A121U	0.06
U20A A124U A140G A142G	1.05
C19U C38U A136G	0.7
U20C U26C A77G A142G	1.45
U20G U81C G127A A129U	0.48

Variant	self-cleavage
U20C A64G U73A	0.4
G21U A57C U104A A140G	0.04
U20C A77U C113U	1.41
U20C A31C U73C	1.7
U20A U85C U96C A107G	1.84
G21A U47C A121G	1.99
U20A A57G G105U A138G	0.79
U20C U87A A138U	0.07
U20A A77G U102C G125C A136U A142G	1.36
U20C A30G U39A G75A A78C	0.98
U20C G54A A67G	0
U20A U134C A138U	1.5
U20C A64G A67G	0
U20A A31U A64C A121U	0.37
U20A U39A A43G G88A A107G U115C	0.11
G21A A77G U104C U109C U115A	1.08
A22G A42G A124C	0.84
G21A U115A U130C	1.73
G21A G74A A121G A138G A141C	0.69
U20C A57G U102C G127U	1.04
U20A A31C A43G U52A	2.3
U20C U39C U119A	1.25
U20A U52G A57G A78U U91A U104C	1.06
U20A U26A U104A	1.33

Variant	self-cleavage
C19U U29C A69U A79G	0.05
A22G A31G A57U A69G U73A A78G	0
U20C G83A U102C	0.81
U20A U26A U47C U87G A140G	0.14
U20A A22G U62G	0.14
U20C U26A A77U	0.61
A22G A30U U104C	1.31
U20A G36C A79G	0.72
U20C U47C U81C	1.76
U20C A43U U85A A138U	0.11
U20C C76G A121U	2.27
U20C A31G G48A U73C	0.75
G21U C113A A136G	1.67
U20C U134C U143C	1.33
U20A A64G U100C A121G	0
U20G A31C A64G	0.77
U20A A22G U119A	1.23
U20C U39C U132C A140G	1.38
C19U U46C G54C A117C	1.38
U20A A65G A67U U96A A140G	0.05
G21C C37U U115C	1.46
U20C A22G U132C U143A	2.24
U20C U85A U143C	0.13
C19U U73A A141G	1.36

Variant	self-cleavage
U20C A129G U134A	0.93
G21U U85G G125A	0.13
U20C A78U U87C	0.04
U20C A22G A79G A92U A136G	1.02
G21A G25A U52A A59U C131U	0.43
U20C G35A A94G	0.17
A22G A24G U52C A107G	0
U20C G34U A69U A79G G105A A121G U130C	0.08
C19U U46C A64U U73A A107G	0.51
U20C U29G A65U	0.32
C19U U26C A79G U132C	2.63
C19U U87C U143C	0.07
U20C U26C U143C	1.8
U20G U134C A142G	0.62
U20A G55A A65G	0.04
U20C U46C A77U U87A	0.13
U20C U47C G88U	0.02
U20A U47C U108C	0.6
U20C G126A A138U	1.87
U20G G32A A124U	0.79
U20C A43U G72U U132C	0.97
A22G A43G U108C	0
U20C U62A A77G	0
U20C U29C U119A A124G A140G	0

Variant	self-cleavage
U20C U26A U73A U109C A124G	0.5
U20A U62C A65G A107G	0
C19U C37U A64G	0.13
U20C G33C A64U U87C U132C	0
U20A A78G A129G A140G	0.51
U20G A94G U96G	0.63
G21A A69G A129G	0.38
A22G A43U A65G	0
U20C G32U A78G	2.12
U20C G34A C103U	1.07
U20A G41U U52C A64U	0.3
U20C U39A G53A U102C	0.94
U20C U26C A77U	1.74
U20C U52A A140G	1.5
C19U U108C A117U	1.78
U20C U45A A50G A142G	0.84
U20A U39A U104C	1.29
U20A U73G A77G U109C	0.4
G21A A67G C90U	0
C19U C76U U134C	1.39
U20C U39C U73C U134C	1.15
U20A U109C U132C	1.66
U20C A31U U47A A77U U119C A138G A141G	1.53
